Results published in paper PMC2727002.
These are yes or no findings as the source states them, for the method shown. Binding seen in cells or lysates may run through a third protein. Some binding calls cover weakened binding; strength is not graded here. Where a sequence is shown, tags or fusion partners need not be part of it.

Legend:
Test in all cases: co-IP; 2 mg of extract of cells expressing a Tap-tagged protein incubated overnight at 4°C with protein G magnetic beads with or without antibody against CBP; 40 mM Hepes pH 7.5, 1 mM EDTA, 20% glycerol, 150 mM potassium acetate, 100 mM potassium chloride; wild-type, caf40Δ or not4Δ cells as named; western blot
Tap-tagged Rrp45 (yeast) = biological target: T1, Tap-tagged Rrp45 (yeast) (UniProt Q05636)
T1 sequence: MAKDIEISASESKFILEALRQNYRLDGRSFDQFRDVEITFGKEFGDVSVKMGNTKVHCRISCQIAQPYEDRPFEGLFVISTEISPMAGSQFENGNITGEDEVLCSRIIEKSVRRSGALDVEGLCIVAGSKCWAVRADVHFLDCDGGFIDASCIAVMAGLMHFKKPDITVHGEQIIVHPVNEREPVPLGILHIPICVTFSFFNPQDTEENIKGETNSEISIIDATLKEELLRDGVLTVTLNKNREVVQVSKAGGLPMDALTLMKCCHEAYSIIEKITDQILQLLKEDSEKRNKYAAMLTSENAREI

Tap-tagged Rrp43 (yeast) = biological target: T2, Tap-tagged Rrp43 (yeast) (UniProt P25359)
T2 sequence: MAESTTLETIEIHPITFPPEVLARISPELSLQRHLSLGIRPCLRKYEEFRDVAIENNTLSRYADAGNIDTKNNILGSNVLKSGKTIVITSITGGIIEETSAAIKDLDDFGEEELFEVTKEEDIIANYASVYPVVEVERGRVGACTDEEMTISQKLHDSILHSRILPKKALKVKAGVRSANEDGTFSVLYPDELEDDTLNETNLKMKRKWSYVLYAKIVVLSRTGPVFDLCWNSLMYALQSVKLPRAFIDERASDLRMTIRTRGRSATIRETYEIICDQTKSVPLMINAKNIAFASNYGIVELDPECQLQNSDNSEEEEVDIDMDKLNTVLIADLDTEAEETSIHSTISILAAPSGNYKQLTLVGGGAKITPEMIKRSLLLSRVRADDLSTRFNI

Tap-tagged Rrp4 (yeast) = biological target: T3, Tap-tagged Rrp4 (yeast) (UniProt P38792)
T3 sequence: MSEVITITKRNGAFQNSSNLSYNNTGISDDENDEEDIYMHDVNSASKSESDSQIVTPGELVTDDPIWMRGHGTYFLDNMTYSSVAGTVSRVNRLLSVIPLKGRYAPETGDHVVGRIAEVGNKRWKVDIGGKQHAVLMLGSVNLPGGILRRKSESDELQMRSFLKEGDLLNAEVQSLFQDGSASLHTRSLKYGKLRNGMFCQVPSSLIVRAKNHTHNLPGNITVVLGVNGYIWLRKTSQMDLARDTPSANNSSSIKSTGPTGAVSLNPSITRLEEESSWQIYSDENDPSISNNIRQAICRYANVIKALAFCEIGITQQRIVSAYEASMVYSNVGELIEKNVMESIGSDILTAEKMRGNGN

Tap-tagged Air2 (yeast) = biological target: T4, Tap-tagged Air2 (yeast) (UniProt Q12476)
T4 sequence: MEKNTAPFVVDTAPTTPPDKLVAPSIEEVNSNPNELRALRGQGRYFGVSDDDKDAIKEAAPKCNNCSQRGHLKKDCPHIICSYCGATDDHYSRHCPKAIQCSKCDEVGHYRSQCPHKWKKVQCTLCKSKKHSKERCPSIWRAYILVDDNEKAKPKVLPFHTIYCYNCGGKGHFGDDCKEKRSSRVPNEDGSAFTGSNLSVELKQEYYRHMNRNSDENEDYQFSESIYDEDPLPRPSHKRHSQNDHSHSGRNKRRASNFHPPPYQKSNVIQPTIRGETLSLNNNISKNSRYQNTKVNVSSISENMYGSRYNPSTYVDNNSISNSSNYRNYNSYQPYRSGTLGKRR

Tap-tagged Rrp40 (yeast) = biological target: T5, Tap-tagged Rrp40 (yeast) (UniProt Q08285)
T5 sequence: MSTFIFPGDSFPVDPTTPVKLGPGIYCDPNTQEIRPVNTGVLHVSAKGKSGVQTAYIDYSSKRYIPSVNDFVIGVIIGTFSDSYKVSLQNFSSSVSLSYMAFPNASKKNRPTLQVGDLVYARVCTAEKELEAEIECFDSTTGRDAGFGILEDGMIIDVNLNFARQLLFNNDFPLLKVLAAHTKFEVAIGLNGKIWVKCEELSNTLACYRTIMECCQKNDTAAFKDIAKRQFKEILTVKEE

Tap-tagged Mtr3 (yeast) = biological target: T6, Tap-tagged Mtr3 (yeast) (UniProt P48240)
T6 sequence: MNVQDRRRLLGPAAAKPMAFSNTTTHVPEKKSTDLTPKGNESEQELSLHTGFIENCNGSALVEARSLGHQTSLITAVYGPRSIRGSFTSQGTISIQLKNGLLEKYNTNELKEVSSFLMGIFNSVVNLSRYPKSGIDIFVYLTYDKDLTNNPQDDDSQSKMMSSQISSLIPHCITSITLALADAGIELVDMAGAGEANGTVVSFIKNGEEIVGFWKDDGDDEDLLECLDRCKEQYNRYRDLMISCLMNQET

Measured: binding

B1: Not5 (protein, UniProt Q12514 1-560)
chain: MSQRKLQQDIDKLLKKVKEGIEDFDDIYEKFQSTDPSNSSHREKLESDLKREIKKLQKHRDQIKTWLSKEDVKDKQSVLMTNRRLIENGMERFKSVEKLMKTKQFSKEALTNPDIIKDPKELKKRDQVLFIHDCLDELQKQLEQYEAQENEEQTERHEFHIANLENILKKLQNNEMDPEPVEEFQDDIKYYVENNDDPDFIEYDTIYEDMGCEIQPSSSNNEAPKEGNNQTSLSSIRSSKKQERSPKKKAPQRDVSISDRATTPIAPGVESASQSISSTPTPVSTDTPLHTVKDDSIKFDNSTLGTPTTHVSMKKKESENDSEQQLNFPPDRTDEIRKTIQHDVETNAAFQNPLFNDELKYWLDSKRYLMQPLQEMSPKMVSQLESSLLNCPDSLDADSPCLYTKPLSLPHPTSIFFPNEPIRFVYPYDVPLNLTNNENDTDNKFGKDSKAKSKKDDDIYSRTSLARIFMKFDLDTLFFIFYHYQGSYEQFLAARELFKNRNWLFNKVDRCWYYKEIEKLPPGMGKSEEESWRYFDYKKSWLARRCGNDFVYNEEDFEKL
binds: all assays above
